SMILES strings stand for the structures. Out of some 2,000 compounds screened, about 110 (5.5%) showed an effect of 50% or more. The list shows a part of the results.

The experiment deals with Genome polyprotein (dengue virus type 2) (UniProt P29990).
Setting [1] is: Thailand/16681/1984, Concentration 25.0 uM, Number of replicates 1.0.

Regarding `N=C(N)NCCC[C@H](NC(=O)[C@H](Cc1ccc(CN)cc1)NC(=O)c1ccccc1)B(O)O`, the inhibition (in general, the relative decrease from the control value, in per cent) (Thailand/16681/1984, Concentration 25.0 uM, Number of replicates 3.0, Standard deviation 0.03506963405710981 %) is 99.2%; the inhibition (Thailand/16681/1984, Concentration 49.5 uM, Number of replicates 2.0, Standard deviation 0.000841588271065532 %) turned out to be 99.2%; the inhibition (Thailand/16681/1984, Concentration 49.5 uM, Number of replicates 2.0, Standard deviation 0.023586050776272474 %) was 99.1%; the inhibition (Thailand/16681/1984, Concentration 49.5 uM, Number of replicates 2.0, Standard deviation 0.03248746518177329 %) worked out at 99.4%; the inhibition (Thailand/16681/1984, Concentration 49.5 uM, Number of replicates 2.0, Standard deviation 0.05596562002585788 %) came to 99.3%; the inhibition (Thailand/16681/1984, Concentration 49.5 uM, Number of replicates 2.0, Standard deviation 0.06712205941408557 %) came to 99.5%. Moreover, the inhibition by setting is: (Thailand/16681/1984, Concentration 49.5 uM, Number of replicates 2.0, Standard deviation 0.09040060678362256 %) 99.2%; (Thailand/16681/1984, Concentration 49.5 uM, Number of replicates 2.0, Standard deviation 0.09520737056259301 %) 99.3%; (Thailand/16681/1984, Concentration 49.95 uM, Number of replicates 2.0, Standard deviation 0.47465039008435067 %) 97.5%; (Thailand/16681/1984, Concentration 99.01 uM, Number of replicates 2.0, Standard deviation 0.0013325147625204256 %) 99.6%; (Thailand/16681/1984, Concentration 99.01 uM, Number of replicates 2.0, Standard deviation 0.024875407165917744 %) 99.7%; (Thailand/16681/1984, Concentration 99.01 uM, Number of replicates 2.0, Standard deviation 0.05930499912707304 %) 99.8%. Further, the inhibition was 99.6% (Thailand/16681/1984, Concentration 99.01 uM, Number of replicates 2.0, Standard deviation 0.0639876825840274 %); 99.8% (Thailand/16681/1984, Concentration 99.01 uM, Number of replicates 2.0, Standard deviation 0.06968458780354793 %); 99.5% (Thailand/16681/1984, Concentration 99.01 uM, Number of replicates 2.0, Standard deviation 0.07464240588758142 %); 99.6% (Thailand/16681/1984, Concentration 99.01 uM, Number of replicates 2.0, Standard deviation 0.12292583554166162 %); 98.7% (Thailand/16681/1984, Concentration 99.9 uM, Number of replicates 2.0, Standard deviation 0.4080138623651106 %); 99.7% (Thailand/16681/1984, Concentration 198.0 uM, Number of replicates 2.0, Standard deviation 0.0010358009490037316 %). For the same molecule, the inhibition by setting is: (Thailand/16681/1984, Concentration 198.0 uM, Number of replicates 2.0, Standard deviation 0.007655216388730705 %) 99.8%; (Thailand/16681/1984, Concentration 198.0 uM, Number of replicates 2.0, Standard deviation 0.011571838727151066 %) 99.8%; (Thailand/16681/1984, Concentration 198.0 uM, Number of replicates 2.0, Standard deviation 0.02492935513201169 %) 99.9%; (Thailand/16681/1984, Concentration 198.0 uM, Number of replicates 2.0, Standard deviation 0.05517797972088629 %) 99.9%; (Thailand/16681/1984, Concentration 198.0 uM, Number of replicates 2.0, Standard deviation 0.06791509451566656 %) 99.8%; (Thailand/16681/1984, Concentration 198.0 uM, Number of replicates 2.0, Standard deviation 0.07632018763310308 %) 99.6%.

Turning to `O=Cc1ccc(N2CCC(C(=O)N3CCC(c4nnc5n4CCCCC5)CC3)CC2)cc1`, the inhibition under setting [1] was 12.7%.

Regarding `O=Cc1ccc(N2CCC(C(=O)N3CCC(c4noc5ccc(F)cc45)CC3)CC2)cc1`, under setting [1], the inhibition was 9.99%.

On to `O=Cc1ccc(N2CCC(C(=O)N3CCN(C(=O)OCc4ccccc4)CC3)CC2)cc1`, for which, under setting [1], the inhibition worked out at 11.5%.

Turning to `CCOc1ccc(CCNC(=O)C2CCN(c3ccc(C=O)cc3)CC2)cc1OC`, under setting [1], the inhibition amounted to 16.8%.

For `Cc1cc(CO)c2cccc(Cc3ccccc3C(=O)N3CC4(CCCOC4)C3)c2n1`, the inhibition (Thailand/16681/1984, Concentration 49.95 uM, Number of replicates 2.0, Standard deviation 0.5044936462842475 %) is -0.608% and the inhibition (Thailand/16681/1984, Concentration 99.9 uM, Number of replicates 2.0, Standard deviation 0.35429534371445953 %) stood at 1.95%.

`NC(=O)c1cccc(NC(=O)[C@@H](NC(=O)OCc2ccccc2)c2ccc(OCc3ccccc3)cc2)c1`: the inhibition reads like this: (Thailand/16681/1984, Concentration 49.5 uM, Number of replicates 2.0, Standard deviation 9.041969593425012 %) 3.65%; (Thailand/16681/1984, Concentration 99.01 uM, Number of replicates 2.0, Standard deviation 1.1271011381219709 %) 9.06%; (Thailand/16681/1984, Concentration 198.0 uM, Number of replicates 2.0, Standard deviation 1.277025907644923 %) 16%.

Regarding `Cc1cc(CO)c2cccc(Cc3cccc(C(=O)NCCc4ncc[nH]4)c3)c2n1`, the inhibition (Thailand/16681/1984, Concentration 49.95 uM, Number of replicates 2.0, Standard deviation 2.0725920117726813 %) is -4.03% and the inhibition (Thailand/16681/1984, Concentration 99.9 uM, Number of replicates 2.0, Standard deviation 0.8997522707097182 %) came to 1.59%.

For the molecule `Cc1nn(Cc2nnc(-c3ccccc3)o2)cc1C1CCNCC1`, the inhibition by setting is: (Thailand/16681/1984, Concentration 49.5 uM, Number of replicates 2.0, Standard deviation 0.7783572877313132 %) -0.64%; (Thailand/16681/1984, Concentration 99.01 uM, Number of replicates 2.0, Standard deviation 0.2127849870308208 %) 0.045%; (Thailand/16681/1984, Concentration 198.0 uM, Number of replicates 2.0, Standard deviation 0.7570324627928547 %) 0.731%.

As to `O=Cc1ccc(N2CCC(C(=O)NCCCSc3ccccc3)CC2)cc1`, under setting [1], the inhibition is 1.55%.

In the case of `O=Cc1ccc(N2CCC(C(=O)Nc3cc(Cl)cc(Cl)c3O)CC2)cc1`, the inhibition under setting [1] turned out to be 98.2%.

As for `COC(=O)c1csc(Cn2cc(C3CCNCC3)c(C)n2)n1`, the inhibition (Thailand/16681/1984, Concentration 49.5 uM, Number of replicates 2.0, Standard deviation 2.0495979556305928 %) was -1.05%; the inhibition (Thailand/16681/1984, Concentration 99.01 uM, Number of replicates 2.0, Standard deviation 1.2818480023400394 %) is -0.667%; the inhibition (Thailand/16681/1984, Concentration 198.0 uM, Number of replicates 2.0, Standard deviation 0.9661419864840785 %) was 0.161%.

Regarding `Cc1cnccc1NC(=O)c1cc(-n2ccnc2)ccn1`, the inhibition by setting is: (Thailand/16681/1984, Concentration 49.5 uM, Number of replicates 2.0, Standard deviation 0.8298151073797565 %) -0.748%; (Thailand/16681/1984, Concentration 99.01 uM, Number of replicates 2.0, Standard deviation 0.1307306310957575 %) -1.01%; (Thailand/16681/1984, Concentration 198.0 uM, Number of replicates 2.0, Standard deviation 0.4404046637498242 %) 0.113%.

Consider `O=C(N[C@@H](C(=O)NC1CCNCC1)c1ccc(OCc2ccccc2)cc1)OCc1ccccc1`, for which the inhibition is -0.225% (Thailand/16681/1984, Concentration 49.5 uM, Number of replicates 2.0, Standard deviation 0.04752487067458113 %); -0.49% (Thailand/16681/1984, Concentration 99.01 uM, Number of replicates 2.0, Standard deviation 0.6611370067327399 %); 2.06% (Thailand/16681/1984, Concentration 198.0 uM, Number of replicates 2.0, Standard deviation 1.22541945186685 %).

Consider `Cc1nc2ccccc2n1C1CCN(C(=O)c2ccc3c(c2)B(O)OC3)CC1`, for which the inhibition is, setting by setting: (Thailand/16681/1984, Concentration 49.5 uM, Number of replicates 2.0, Standard deviation 0.13633788996849533 %) -0.912%; (Thailand/16681/1984, Concentration 99.01 uM, Number of replicates 2.0, Standard deviation 0.32476501732804397 %) -0.37%; (Thailand/16681/1984, Concentration 198.0 uM, Number of replicates 2.0, Standard deviation 1.3153663056794043 %) 2.34%.

As for `O=Cc1ccc(N2CCC(C(=O)N3CCN(S(=O)(=O)c4cccc(Br)c4)CC3)CC2)cc1`, under setting [1], the inhibition was -1.79%.

These data come from ChEMBL document CHEMBL5606460, “ASAP - DENV-2 NS2B-NS3 protease fluorescence single point” (2024).
